Assay results as given in patent US8642544B2, “N-terminus conformationally constrained GLP-1 receptor agonist compounds” (Amylin Pharmaceuticals, LLC, priority 2009, dated 2014).
At least one structure is not confirmed: it was looked up by name or label, or the drawing left a doubt.

Target: T1, GLP-1 receptor (Rattus norvegicus, UniProt P32301)
T1 construct: 96-well assay plate containing RIN m5f cell membranes in an ATP/GTP mixture; endogenous in cells; host or cells: RIN m5f cell membranes
T1 sequence (P32301 22-463): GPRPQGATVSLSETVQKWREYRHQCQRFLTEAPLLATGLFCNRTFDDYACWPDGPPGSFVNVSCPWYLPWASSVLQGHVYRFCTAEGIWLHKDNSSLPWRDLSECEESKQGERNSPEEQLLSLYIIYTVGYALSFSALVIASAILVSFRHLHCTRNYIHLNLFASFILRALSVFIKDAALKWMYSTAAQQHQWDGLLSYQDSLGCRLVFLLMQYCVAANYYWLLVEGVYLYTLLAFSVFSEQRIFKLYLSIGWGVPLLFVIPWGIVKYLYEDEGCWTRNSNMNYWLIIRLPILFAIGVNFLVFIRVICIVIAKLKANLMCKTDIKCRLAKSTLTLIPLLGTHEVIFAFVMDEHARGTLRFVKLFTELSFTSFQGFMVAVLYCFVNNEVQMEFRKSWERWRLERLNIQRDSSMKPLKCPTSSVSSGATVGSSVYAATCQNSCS
Assay: in vitro functional assay at the GLP-1 receptor (cyclase, cAMP production in RIN m5f cell membranes)
Type: biochemical
Conditions: read-out: Cyclase GLP-1 Receptor EC50, Table 1, cAMP production (AlphaScreen)
Description: The compounds shown in Table 1 below were analyzed in an in vitro functional assay at the GLP-1 receptor. The assay was conducted as follows: Membrane fractions were prepared from confluent cultures of RIN m5f cells. Compounds were serially diluted with an assay buffer, and then added to a 96-well assay plate containing RIN m5f cell membranes in an ATP/GTP mixture. Cyclase activities were determined by measuring the production of cAMP induced through GLP-1 receptor activation. Quantification of cAMP production was achieved through a competitive chemiluminescence assay with a biotinylated-cAMP probe using Perkin Elmer Fusion™-Alpha Microplate Analyzer (AlphaScreen™ technology). The compound EC50 values were obtained through fitting the concentration-response curves to a four-parameter logistic equation within GraphPad PRISM® software.

CC[C@H](C)[C@H](NC(=O)[C@H](Cc1ccccc1)NC(=O)[C@H](CC(C)C)NC(=O)[C@H](CCCNC(=N)N)NC(=O)[C@@H](NC(=O)[C@H](C)NC(=O)[C@H](CCC(=O)O)NC(=O)[C@H](CCC(=O)O)NC(=O)[C@H](CCC(=O)O)NC(=O)[C@H](CC(C)C)NC(=O)[C@H](CCC(N)=O)NC(=O)[C@H](CCCCN)NC(=O)[C@H](CO)NC(=O)[C@H](CC(C)C)NC(=O)[C@H](CC(=O)O)NC(=O)[C@H](CO)NC(=O)[C@@H](NC(=O)[C@H](Cc1ccccc1)NC(=O)[C@@H](NC(=O)[C@H]1CCCN(C(=O)[C@@H]2CCCN(C(=O)[C@H](C)NC(=O)[C@@H](N)Cc3c[nH]cn3)C2)C1)[C@@H](C)O)[C@@H](C)O)C(C)C)C(=O)N[C@@H](CCC(=O)O)C(=O)N[C@@H](Cc1c[nH]c2ccccc12)C(=O)N[C@@H](CC(C)C)C(=O)N[C@@H](CCCCN)C(=O)N[C@@H](CCC(N)=O)C(=O)NCC(=O)NCC(=O)N1CCC[C@H]1C(=O)N[C@@H](CO)C(=O)N[C@@H](CCCCN)C(=O)N[C@@H](CCC(=O)O)C(=O)N[C@H](C(=O)N[C@H](C(=O)N[C@@H](CO)C(N)=O)[C@@H](C)CC)[C@@H](C)CC [15A]
EC50: 0.57 nM
